SMILES strings stand for the structures. Hit rate of the full screen: of about 52,000 compounds, about 4,300 (8.3%) were called active. No stated cut-off is given here; in the data, active means survival mostly below about 52% (no sharp cut-off); inactive means mostly above about 56%. The list shows a part of the results.

In the assay the test system is DeltatarO mutant. Nature of the assay: S. aureus survival, RN4220 and DeltatarO strains – OD600, teichoic acid synthesis inhibitors, primary screen (AID 463173). The conditions noted are these: S. aureus RN4220 wild type/DeltatarO growth, OD600, 18 h, stronger effect = lower value, screened at 18.75 µg/mL (by protocol).
With `Cc1cc2c(cc1S(=O)(=O)CCC(=O)N1CCCCC1C)OCC(=O)N2` (centres undefined), the survival is inactive: 81%.

On to `CCOC(=O)N1CCc2c(sc(NCc3cccs3)c2C(=O)Nc2ccc(OC)cc2OC)C1`, for which the survival is inactive: 90%.

Consider `COc1ccccc1N1CCN(S(=O)(=O)CCNC(=O)Cc2ccc(Cl)cc2)CC1`, for which the survival is inactive: 84%.

Take `O=c1c(S(=O)(=O)c2ccccc2)cn(Cc2cccc(F)c2)c2cc(N3CCCC3)c(F)cc12`: the survival is inactive: 104%.

Take `CCCS(=O)(=O)N1CC(=O)N(c2ccc(C)cc2C)C(C)(C(=O)NC2CCCCCC2)C1` (centres undefined): the survival was inactive: 67%.

With `O=C(Cn1c(=O)nc(-c2ccccc2)c2cc(Cl)ccc21)NCc1ccc(Cl)cc1`, the survival is inactive: 40%.

With `COc1ccc(CCNS(=O)(=O)c2cc(-c3onc(C)c3C)ccc2OC)cc1OC`, the survival is active: -1%.

Take `CCOc1ccc(CCNC(=O)c2ccc3c(c2)N(Cc2ccccc2F)C(=O)c2ccccc2S3=O)cc1OCC` (centres undefined): the survival was inactive: 82%.

For the compound `O=C(CCS(=O)(=O)c1cc2c3c(c1)CCN3C(=O)CC2)Nc1cccc(Br)c1`, the survival is inactive: 83%.

Turning to `O=C(Nc1cnn(Cc2ccc(Cl)cc2Cl)c1)c1noc2c1CCc1ccccc1-2`, the survival was active: 47%.

On to `COc1cc(OC)c(NC(=O)C(Cc2ccccc2)NS(=O)(=O)c2cccc3nsnc23)cc1Cl` (centres undefined), for which the survival was inactive: 71%.

Turning to `CN(C)c1ccc(NC(=O)CSc2nc3ccsc3c(=O)n2CCCCCC(=O)O)cc1`, the survival was inactive: 96%.

In the case of `Cc1c(C(=O)N(Cc2ccco2)Cc2ccccc2Cl)oc2ccc(F)cc12`, the survival was active: 42%.

For the compound `COCCN1Cc2cc3cc4c(cc3nc2SC1=Nc1cccc(OC)c1)OCO4`, the survival is inactive: 87%.

In the case of `Cc1ccc(NC(=O)C(C)Sc2nc(N)cc(N)n2)c(C)c1` (centres undefined), the survival was inactive: 76%.

Turning to `COc1ccc(OC(C)C(=O)NCc2nc(-c3cccc(C)c3)no2)cc1` (centres undefined), the survival was inactive: 61%.

With `CCS(=O)(=O)c1ccccc1C(=O)Nc1ccc(-c2nc3ccccc3s2)cc1`, the survival is inactive: 78%.

For the compound `CC(C)CCNC(=O)CN1C(=O)c2cccnc2Sc2ccccc21`, the survival was inactive: 84%.

`COc1ccc(CC(=O)Nc2cc(-c3cn4cccnc4n3)ccc2OC)cc1`: the survival is inactive: 91%.

As for `CCCCC(=O)NC1(C(F)(F)F)C(=O)Nc2c1c(=O)[nH]c(=O)n2-c1ccc(C)c(C)c1` (centres undefined), the survival was inactive: 69%.

Consider `O=C(Nc1ccc2nc(SCCOc3ccccc3Cl)sc2c1)c1ccc2c(c1)OCO2`, for which the survival was inactive: 68%.

For the compound `Cc1ccc(NC(=O)c2ccc(CNS(=O)(=O)c3ccc4c(c3)C(C)(C)C(=O)N4C)cc2)cc1F`, the survival is inactive: 57%.

For the compound `CCOc1ccc(CCNC(=O)CSc2nnnn2-c2ccc(C)cc2C)cc1OCC`, the survival was inactive: 56%.

As to `CCOC(=O)C1=C(CN(C)Cc2ccccc2)NC(=O)NC1c1ccc(OC)cc1` (centres undefined), the survival was inactive: 94%.

As for `CC(C)COC(=O)c1nnsc1NC(=O)Nc1ccccc1`, the survival is inactive: 76%.

With `O=C(CSc1nnc(COc2ccccc2)o1)N1CCCC1`, the survival is inactive: 80%.

Consider `COc1ccc2c(c1)c1c(c(=O)n(-c3ccccc3)c(=O)n1CC(=O)NCc1ccc(C)cc1)n2C`, for which the survival was inactive: 83%.

As to `CSc1nn(Cc2cccc(Cl)c2)c(N(C(C)=O)C(C)=O)c1S(=O)(=O)c1ccccc1`, the survival is inactive: 73%.

Consider `COc1ccc(CC(=O)N(Cc2nc(-c3ccc(C)cc3)no2)C(C)C)cc1`, for which the survival is active: 31%.

As to `O=C(CSc1nc2nccnc2c(=O)n1CCc1c[nH]c2ccccc12)Nc1ccc(F)cc1`, the survival was active: 29%.

As for `COc1ccc(C2C(=O)N(C3CCC(C)CC3)CC(=O)N2C2CCCC2)cc1OC` (centres undefined), the survival is active: -2%.

As for `COc1cccc(NC(=O)CSC2=Nc3ccccc3C3=NC(CC(=O)NCc4ccc5c(c4)OCO5)C(=O)N23)c1` (centres undefined), the survival is inactive: 100%.

Take `CCCCNC(=O)c1cnc2sc(N3CCCCCC3)nn2c1=O`: the survival was inactive: 79%.

As for `COc1ccc(C)cc1NC(=O)Nc1ccccc1OCc1cc(=O)n2ccccc2n1`, the survival is inactive: 101%.

In the case of `c1ccc(-n2nnnc2NC2CCCCCC2)cc1`, the survival is inactive: 85%.

For the compound `Cc1cc(C)c(NC(=O)C(=O)NCC(c2cccnc2)N2CCN(Cc3ccccc3)CC2)c(C)c1` (centres undefined), the survival is inactive: 86%.

Regarding `O=C(c1cccnc1)N1N=C(C(F)(F)F)CC1(O)c1cccnc1` (centres undefined), the survival is inactive: 93%.

Take `Cc1ccccc1-c1noc(-c2ccc(N3CCN(C)CC3)c([N+](=O)[O-])c2)n1`: the survival is inactive: 72%.

With `Cc1c(C(=O)OC2CCCCCC2)[nH]c2c1C(=O)CC(c1ccc(N(C)C)cc1)C2` (centres undefined), the survival is inactive: 118%.

As to `COc1cc(OC)cc(C(=O)Nc2cc(-c3nc4cccnc4s3)ccc2C)c1`, the survival was active: 43%.

Consider `CCC(C(=O)Nc1ccc(C(=O)OC)cc1)n1nc(-c2ccc(C)c(C)c2)ccc1=O` (centres undefined), for which the survival was inactive: 86%.

As to `CCOc1ccc(Nc2sc(C(=O)c3cccc(OC)c3)c(N)c2S(=O)(=O)c2ccccc2)cc1`, the survival is inactive: 84%.

Take `COc1ccc(NC(=O)C2CCN(S(=O)(=O)c3ccc4c(c3)CCCC(=O)N4)CC2)c(OC)c1`: the survival was inactive: 115%.

As to `O=C(O)CC1CCS(=O)(=O)C1` (centres undefined), the survival is inactive: 62%.

Consider `Cn1c(=O)c(=O)n(C)c2cc(S(=O)(=O)N3CCCC3C(=O)Nc3ccc(F)cc3)ccc21` (centres undefined), for which the survival was inactive: 87%.

On to `Cc1ccc(NC(=O)CSc2ccc(-c3ccccn3)nn2)cc1F`, for which the survival was inactive: 49%.

For the compound `COc1ccc(S(=O)(=O)N(CC(=O)NCCSCc2ccccc2)c2ccc(C)cc2)cc1`, the survival was inactive: 54%.

Consider `CCOc1ccc(CNC(=O)Cn2ccc3cc(S(=O)(=O)N4CCCCC4)ccc32)cc1`, for which the survival was inactive: 96%.

As to `COc1ccc(-n2cc(C(=O)OCc3ccc(Cl)cc3)c3ccccc3c2=O)cc1`, the survival is inactive: 100%.

Consider `CC(C)CNC(=O)c1cccc(NC(=O)C(C)C)c1`, for which the survival is inactive: 57%.

Turning to `CN(C)c1ccc(C(CNS(=O)(=O)c2ccc(F)cc2)N2CCOCC2)cc1` (centres undefined), the survival was inactive: 92%.

With `Cc1sc(-n2c(C)cc(/C=C(\C#N)C(=O)NCc3ccco3)c2C)c(C#N)c1C`, the survival is inactive: 84%.

Turning to `Cc1cc2cc3c(cc2nc1SCC(=O)OC(C)C)OCO3`, the survival was inactive: 91%.

Take `COc1ccccc1NC(=O)C(Cc1ccccc1)NS(=O)(=O)c1cccc2nsnc12` (centres undefined): the survival is inactive: 89%.

`COc1cc(Cl)c(C)cc1NC(=O)c1sc2nc(C)cc(C)c2c1N`: the survival is inactive: 99%.

Turning to `COc1cc(C(=O)N(Cc2cccnc2)c2nc3cc(C)c(C)cc3s2)cc(OC)c1OC`, the survival was inactive: 49%.

Take `CCOC(=O)COc1ccc(F)cc1C(=O)c1ccn2nc(-c3ccc(C)cc3)cc2n1`: the survival is inactive: 80%.

For `CN1C(=O)C(C)(C)c2cc(S(=O)(=O)N3CCCC3C(=O)Nc3ccc(F)cc3)ccc21` (centres undefined), the survival is inactive: 55%.

As for `COC(=O)c1ccc(Cl)cc1NC(=O)N(Cc1ccc(OC)cc1)C1CCN(C(C)=O)CC1`, the survival was active: -5%.

Consider `CC(=O)Nc1n[nH]c(-c2ccc(C)cc2)n1`, for which the survival was inactive: 89%.

As for `CCCCOC(=O)c1cccc(NC(=O)/C=C/c2ccccc2Cl)c1`, the survival is active: 14%.

Regarding `COc1ccc(OC)c(NC(=O)CSc2nc3ccccc3c(=O)n2CCC(=O)NC2CCCCC2)c1`, the survival was inactive: 94%.

Regarding `O=C(Cn1c(SCC(=O)Nc2ccc(F)cc2)nc2ccccc21)NCc1ccccc1Cl`, the survival was inactive: 101%.

For the compound `N#Cc1c(C(F)(F)F)cc(-c2cccs2)nc1SCC(=O)Nc1cccc(C(F)(F)F)c1`, the survival was inactive: 48%.

On to `COc1ccc(S(=O)(=O)N(Cc2nc(-c3ccc(Cl)cc3)no2)C2CCCCC2)cc1`, for which the survival was inactive: 106%.

For the compound `Cc1ccc(S(=O)(=O)NCc2ccc(C(=O)NCCc3cccc(C)c3)cc2)cc1`, the survival was inactive: 86%.

Regarding `Cc1ccc(Cn2c(=O)n(-c3cc(C)cc(C)c3)c(=O)c3oc4ccccc4c32)cc1`, the survival was inactive: 76%.

For the compound `O=C(c1ccccc1Br)N1CCC(c2nc3ccccc3o2)CC1`, the survival was inactive: 82%.

Consider `O=S(=O)(c1ccc(-n2cnnn2)cc1)N1CCN(c2cccc(C(F)(F)F)c2)CC1`, for which the survival was inactive: 70%.

On to `CCC1(c2csc(Nc3ccccc3C)n2)CCC(=O)O1` (centres undefined), for which the survival is inactive: 89%.

As to `Cc1oc(C)c2c(=O)cc(-c3ccc4c(c3)OCO4)cc(OC(=O)c3cccc(Cl)c3)c12`, the survival was inactive: 94%.

As for `COc1ccc(-n2ncc3c2ncn2nc(Cc4ccccc4)nc32)cc1`, the survival is inactive: 78%.

On to `Cc1ccccc1CNCc1c(C(=O)O)c(C)n(Cc2ccc(F)cc2Cl)c1C`, for which the survival was inactive: 59%.

Take `CC(=O)Nc1ccc(C(=O)Nc2ccc3c(c2)N(C2CCCC2)C(=O)c2ccccc2S3)cc1`: the survival is active: -4%.

For `CN(C(=O)c1ccccc1)C1CCS(=O)(=O)C1` (centres undefined), the survival was inactive: 90%.

For `Clc1ccccc1CN1CCc2nc(N3CCN(c4ncccn4)CC3)ncc2C1`, the survival is inactive: 87%.

`Cc1ccc(C(=O)N2CCCn3c2nc2ccccc23)cc1`: the survival was inactive: 70%.

Take `Cc1ccc(-c2noc(-c3nnn(-c4ccc(Br)cc4F)c3C)n2)cc1`: the survival is inactive: 83%.

Take `O=C(N1CCOCC1)N1CCN(Cc2ccccc2)CC1`: the survival is inactive: 103%.

For the compound `O=C(Nc1ccc(F)cc1)c1cc2cc3ccc(Cl)cc3nc2o1`, the survival is inactive: 84%.

Turning to `NC(=O)C1CCN(C(=O)CCSc2ccc(Cl)cc2)CC1`, the survival was inactive: 97%.

`COc1cc2c(cc1NC(=O)COc1ccc(Cl)cc1)oc1ccccc12`: the survival is active: 46%.

Turning to `CCC1Oc2ccccc2N(CC(=O)NCCc2ccc(OC)c(OC)c2)C1=O` (centres undefined), the survival is inactive: 115%.

As for `O=C(NCCc1ccccc1)c1cnc2sc(N3CCCCC3)nn2c1=O`, the survival is inactive: 82%.

For the compound `O=C(O)CSc1nc2ccccc2c(=O)n1Cc1ccco1`, the survival is inactive: 99%.

As to `COc1cc(OC)c(NC(=O)N2CCc3cc(S(=O)(=O)N4CCC(C)CC4)ccc32)cc1Cl`, the survival is inactive: 89%.

As to `O=C(c1cc2c(s1)-c1ccccc1OC2)N1CCN(c2ccc(F)cc2)CC1`, the survival was inactive: 59%.

In the case of `COc1ccc(CCNS(=O)(=O)c2ccc(N3CCCCS3(=O)=O)cc2)cc1`, the survival was inactive: 79%.

As for `COc1ccc(-n2ncc(C(=O)NCCN3CCOCC3)c2C2CCN(C(=O)OC(C)(C)C)CC2)cc1`, the survival was inactive: 119%.

For the origin of these results see PubChem BioAssay AID463173 (ICCB-Longwood Screening Facility, Harvard Medical School, 2010).
